The supplement of paper PMC3334620
The full ranking holds about 33,000 sequences; the median of “E-score (-0.5 to 0.5)” is about -0.054, and the highest 2% start at about 0.39. The list shows a part of the results.

These sequences were tested against Ylr278c (UniProt Q05854) (assay: PBM E-score (8-mer binding enrichment) (E-score (-0.5 to 0.5)); higher = stronger / more preferred TF binding; most listed sequences are background and not binding sites). Conditions: protein concentration: 200 nM; construct: GST-DNA-binding domain.
Method in brief: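 GST-tagged yeast TFs (full-length or DNA-binding domain) were made by PURExpress in vitro transcription/translation and applied at about 100-200 nM to universal all-10-mer Agilent arrays. The arrays were made double-stranded by primer extension, on fresh or once-stripped slides. Bound protein was detected with fluorescent anti-GST, and scans were normalised with masliner. Each ungapped eight-base word, pooled with its reverse complement, received an E-score (modified Wilcoxon-Mann-Whitney statistic) from the Universal PBM Analysis Suite.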

Sequence | PBM E-score
CTACTTTA | -0.0983
CTCGTGTC | -0.216
TGAGTCAA | -0.201
AGCCAGCA | -0.22
AACGGTAC | -0.0512
GCCTCAGC | -0.112
AATTATGC | 0.00469
CATCTATA | -0.0607
CCGCCCGG | 0.402
GAGCAGTA | 0.0369
AGCGACCA | -0.115
CTCTGAAA | -0.19
ATTAAGCC | 0.14
CGTTAGTC | 0.00755
ATCTCCCG | 0.301
ACTAGGAA | -0.0851
CCGCCGAC | 0.293
GCAAATGC | -0.0446
ATCGAATC | 0.0503
AATTAGGT | -0.161
CGGACGTA | 0.326
ATGGCTAA | -0.0485
ATAGCTAA | -0.148
AAACGCGG | 0.339
AAGATTCT | -0.242

Sequence | PBM E-score
GGATGTAC | -0.0654
GTTCACGA | -0.0592
CTCTACAG | -0.308
CAGTTCTA | -0.231
CGGGATGA | 0.231
CAGTTTAG | -0.0964
CAAACCTC | -0.114
CCCTCGTC | 0.0775
CGTCCTGA | -0.284
CTCAAAAC | -0.0982
CAAAACCA | -0.113
GAATCTTA | -0.0176
ATAAGTGC | -0.179
GATTCACA | -0.101
AAAACCTG | -0.221
GTCTCAAA | -0.164
GTGGCTGA | 0.0849
GTAGGGAA | -0.0225
GTCTTACA | -0.252
ACAGCTTC | -0.182
CAAACACC | 0.106
ATTCCGGC | 0.463
CAATCTGC | -0.0859
GATGAGTA | -0.154
CAGCGTCC | 0.0707

Sequence | PBM E-score
CTCTAAGA | -0.0471
GACTCAAA | -0.24
AACGCTCA | -0.187
CCACTTAG | -0.183
CCTGCCCC | -0.0192
CTATTATC | 0.104
GACGACCA | -0.153
AATCAGCA | -0.163
ACAACATA | -0.0493
AATTCGCG | 0.123
AGGATAAA | -0.0305
ACCAACGC | 0.0624
AGGAAACA | 0.00018
CTGATGGC | -0.0323
ATTGTTAG | -0.131
GTATTCTA | -0.141
AATTTGTA | 0.0191
TAGCTCGA | -0.0077
CCTTCTGC | -0.136
ACCTGCGA | -0.105
GCCGGTAA | 0.341
CCGGCCTC | 0.269
CATCTCGA | -0.258
AACTAACT | -0.0106
ATAGTTCC | 0.15

Sequence | PBM E-score
GCAGAACC | -0.157
CAAATTCG | 0.176
TCAAAAGA | -0.0887
CCATCACG | -0.0399
ACACGACC | -0.0307
GTAGTGCA | -0.126
AGACTTGG | -0.281
CTGCTCAC | -0.328
GAACTGTA | 0.101
CTGTCAAC | -0.255
GGCATCAA | -0.173
CAAATAGG | -0.194
GGTCTTTA | -0.0369
ATGCGAAC | 0.0978
ATCGTTAG | -0.0848
AATCGAGA | -0.115
AACCTGCT | -0.092
CCGCGCTC | 0.312
CATTTACG | 0.056
ATGCCTAC | -0.241
GTTTGTCA | -0.0804
AGAATTAG | -0.16
TGAAGCAA | -0.284
CCTGACTA | -0.0923
ATAATCTC | 0.0896

Sequence | PBM E-score
AAAAGCAA | -0.111
ATCCCGAC | 0.34
ATTGGTAG | -0.142
GCCGTAGA | 0.129
GGTAAGTA | -0.00483
ACAAGACA | -0.0802
ACCGATAC | 0.0537
AGGGGCAG | -0.25
CGTAGTAG | 0.0271
ATTTCGAG | 0.00422
ATACGGAG | 0.425
AATAGCAA | 0.00909
GAATCGCA | -0.0817
CGTAGCGC | -0.0805
GCTTCTTA | 0.0454
ATGCGTTA | -0.102
GAAGACAC | 0.0215
CCGATGGA | 0.31
CGTTTAAA | 0.0722
CAGTTTAC | -0.251
AGTTTAGC | -0.0113
AATGCACG | 0.176
GACCTCGC | 0.00628
AAGTCACG | 0.0672
ATAATCCC | 0.114

Sequence | PBM E-score
CAAAATCC | 0.335
ATAACCAA | -0.0848
AGCCACAA | -0.0479
TCTAAGCA | -0.105
AATAGTGG | -0.149
AAAAATCT | -0.0213
GCAACCGA | -0.136
GGATGTGA | 0.0636
CGGTCGGC | 0.311
AGAGTTAA | -0.262
AACGAGGA | -0.12
GAACCCGC | 0.196
GGAATTCC | 0.441
CGAAGTTC | 0.0669
AACTTGCC | -0.0566
AACCCGTG | -0.127
GAACTCGA | -0.14
CACCAATG | 0.0486
AGAAAAGA | -0.162
AGAGTCGG | 0.179
TCTACGCA | -0.139
AAACGGAT | 0.242
GCCGAATA | 0.261
GCACTTAA | -0.0787
ACCTGACT | -0.171

Sequence | PBM E-score
ATTGCTCG | 0.125
CCGTCTAC | 0.141
CTTTCAAA | 0.0824
CACGCCTC | -0.222
CCGAGGCA | 0.0949
CCATGCGC | 0.00176
AATTGGAC | 0.0279
ACGCAGTC | -0.233
GGCTACGA | -0.0314
AGGACCCA | -0.0634
CATCATCC | -0.106
AATGTACA | 0.051
CCTAGTAA | 0.00285
AACTATAG | -0.0717
GGTGCACC | -0.00086
CAGAATCA | -0.264
CTCGACCA | -0.232
GTTCTTAA | 0.0083
CTTTCTGC | 0.0403
CTTAATCC | 0.194
CATCGGTA | 0.261
GCAGTCCC | -0.0348
GGGGTGAA | 0.0354
ATTGGTGG | -0.0303
ACGTACAT | -0.0876

Sequence | PBM E-score
GTCATAGA | -0.171
CCGTGAAG | 0.11
CTAGTTCC | 0.0969
CTCCAAAC | -0.0559
CACGTTTA | -0.198
CTCACCTA | -0.134
GGTGTGCA | -0.277
GTGAACCA | -0.201
TACTCCTA | -0.187
AGTAGGTC | -0.121
AGGTCCCA | -0.224
CCAGGTGC | 0.00287
CGGGGGAA | 0.255
AGTAGGAA | -0.241
CCGGTCCA | 0.21
AGCTTAGG | -0.123
ACCTAGAC | -0.125
CAGGTCCG | 0.353
AGAACTGC | -0.211
GACAGTTA | 0.138
AGATCACG | -0.12
TCCGCGAA | 0.343
AAATAAAG | 0.0294
TCACTAAA | -0.193
CGACTAAA | -0.01

Sequence | PBM E-score
AGCACAGG | -0.148
ATCACGAA | -0.154
ACCTCGAT | -0.00037
AAGACAGG | -0.18
GAGAGTCC | 0.0243
CTTTATGA | -0.322
AATTGTAG | -0.178
CCGCGAAG | 0.282
AAAAGCGG | 0.28
CGACGCCA | 0.0485
AGTGTCCA | -0.206
ATCAGCCC | -0.123
CCATATTC | 0.0287
CAATGTCC | 0.141
ACCTTCGG | 0.263
GTGTTTCA | -0.144
AAAGGAAA | -0.00742
ATGTAACA | -0.0411
CTCGGCGA | 0.354
GCTATAAC | -0.0616
AGGAAGGC | -0.204
CCCCACCC | 0.24
CCCTACGC | -0.172
CTTCAGAA | -0.0137
GCCTGAAC | -0.217

Sequence | PBM E-score
GGGCCACC | -0.0283
AAATCTAA | -0.15
AGTTTTGA | -0.0999
ACTCTAAT | -0.121
GATCCTCC | 0.166
GCAGCAAA | -0.104
ACTCCAAC | -0.00141
CGGGGGGC | -0.0107
GGGCCCAA | -0.132
CACGTGTC | -0.197
GGGATTGA | 0.0278
GTGCCAGA | -0.175
CGGTATAC | 0.23
GGTATGCA | -0.156
GCCTCACC | 0.0697
GGCTCGAC | -0.177
CAGTATGC | -0.128
AGTGTAAA | -0.0393
TATCTCGA | -0.169
CGCTTGGA | -0.0659
AGAGGCCT | -0.21
AAGGTTGC | -0.111
ATCGATGG | -0.0527
ACTCACCT | -0.323
AAAGAGCA | -0.118

Sequence | PBM E-score
GTTGCTCA | -0.197
GAGTTTCC | 0.288
CGGGACAG | 0.182
AGCGCCAA | -0.242
GTTACCAA | -0.114
ACAGAGTC | -0.133
CCGAGAGA | 0.228
CGGACAGC | 0.267
ACGCGCGA | 0.0879
AACTCATA | -0.035
AGTTATAT | 0.0752
GTACGAAA | -0.238
ACTCTAGG | -0.285
GAACTATA | 0.0455
GAACATTA | 0.017
ATTGCCTG | -0.152
AGGGCCTG | -0.341
CCATCACA | -0.121
CACGGATG | 0.12
AACTGATG | -0.186
AAAGGGTA | -0.168
AAGCGCCC | 0.147
TCAAATCA | -0.315
CGAGTCTA | -0.0863
CAAGGGGA | -0.133

Sequence | PBM E-score
AAAAACCT | -0.046
CTGCCCGA | 0.0786
AGTATTAG | 0.134
CGGTGACC | 0.137
AGCAACCA | -0.0573
AAATCGGC | 0.355
TACCATCA | -0.286
AGGGGACC | -0.035
CGCTTTGA | -0.0158
ATAATAAA | 0.0338
AACTCGCG | 0.0802
CTAATACC | -0.0228
ATTAGTTG | -0.0328
GCCTACTA | -0.161
ACTAGTCC | 0.136
GGGTAAGA | -0.0525
GCGCAAGC | -0.0163
ACGCTTAA | -0.169
ACACCAGC | -0.187
TAGACTCA | -0.143
ACTCGGTC | 0.14
CACAGCAA | 0.0615
ACTGCTAT | -0.0282
CGACGTAA | 0.0877
GTCCCCGA | 0.217

Sequence | PBM E-score
CGACTCAA | 0.0186
ACCGGTAT | 0.277
CGGTAAAC | 0.109
AAGGTGGA | -0.0212
AATGGCGC | 0.0672
ATCCTGAA | -0.0381
AGACATCG | -0.189
CGATTACA | -0.139
ATGCCAAA | -0.235
ATCGTAAA | -0.262
GGCGTGTA | -0.155
CTGGGTGA | -0.062
GCAACGCA | 0.0823
CGGTGTCC | 0.304
ACTTTTTA | -0.0457
TGCCCTAA | -0.106
AAGATAAC | 0.0843
ACGTAGCT | -0.243
GCAGCGCC | 0.0978
GCATAAAC | -0.0445
CACTAAGA | -0.0899
CGGGCCAA | 0.154
ATCCTGTC | 0.0186
ATAGCTCA | -0.219
AACATAGT | -0.0122

Sequence | PBM E-score
AGCTGATA | -0.116
AAAAAGAC | -0.0178
TCAGACGA | -0.171
CTAAGTAC | -0.176
AAGAGGAC | -0.219
CACATCAC | -0.0028
TCACCCGA | 0.0882
AAGAGCGG | 0.173
AGAGCAAT | -0.178
CACCTTTC | 0.00591
GACATTGC | -0.11
ATATTTAA | 0.0182
ATGGTCCC | -0.161
CGGTACTC | 0.0568
CCGAATGC | 0.316
TCCTAGCA | -0.125
TTCAAGAA | -0.0452
GGTTGTAA | -0.0633
CGGGCCGA | 0.273
